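Assay format: 96-well plates, 48-hour exposure. Here, GI50 denotes the concentration required for 50% inhibition of growth. TGI is the concentration that stops growth completely.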

This test deals with NCI-H322M lung. In words: inhibition of tumour cell growth, NCI panel, 48 h.
`COc1ccc(Cn2cc3c(c2-c2cc(OC)c(OC)c(OC)c2)CCCc2cnoc2-3)cc1N`: the GI50 was 1840 nM and the TGI is greater than 100000 nM.
In the same order, the values of `NC(N)=Nc1ccc(Oc2cccc(Nc3ccc(Cl)c(C(F)(F)F)c3)c2)cc1` are 1750 nM and 3380 nM.
As to `CCN(CC)S(=O)(=O)c1ccc(-c2nc(C(Cl)Cl)nc3cc(C)nn23)cc1`, the GI50 was 2050 nM and the TGI came to 6330 nM.
In the same order, the values of `O=C1CCC(N2C(=O)c3ccc(NS(=O)(=O)c4ccccc4OC(F)(F)F)cc3C2=O)C(=O)N1` (stereo not drawn) are 724 nM and greater than 100000 nM.

The values are drawn from PubChem BioAssay (NCI).
